Test results from the supplement of paper PMC4604168 (melanoma cell lines).
The other results are listed elsewhere or left out. Most values come without repeats; read them as rough.

System: WM3526
Assay: cell count relative to DMSO control; melanoma cells; higher = more viable cells
Settings: library dose: standard library concentration; 72 h
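Note: cells treated in 1,536-well plates, then fixed and DAPI-stained, with nuclei counted from automated high-throughput microscope images.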

| SMILES | cell count [%] |
| --- | --- |
| COCC[n+]1c2c(n(Cc3cnccn3)c1C)C(=O)c1ccccc1C2=O + N#Cc1c(O)c2c(-c3ccc(-c4ccccc4O)cc3)csc2[nH]c1=O [A769662] (first compound 0.002 µM, partner dose 10 µM) | 49.5 |
| Nc1cccc2c1CN(C1CCC(=O)NC1=O)C2=O (stereo not drawn) [lenalidomide] + O=C(Nc1ccccc1)c1cc([N+](=O)[O-])ccc1Cl [GW9662] (first compound 5 µM, partner dose 10 µM) | 90.3 |
| O=C(CCCCCCC(=O)Nc1ccccc1)NO [vorinostat] + CC(C)CCN1c2nc(Nc3cc(F)c(O)c(F)c3)ncc2N(C)C(=O)C1C [BID1870] (first compound 0.4 µM, partner dose 1 µM) | 67.6 |
| OCc1c[nH]c2ccccc12 [Indole-3-carbinol] + COCC[n+]1c2c(n(Cc3cnccn3)c1C)C(=O)c1ccccc1C2=O [YM155] (first compound 4 µM, partner dose 0.002 µM) | 52.1 |
| COCC[n+]1c2c(n(Cc3cnccn3)c1C)C(=O)c1ccccc1C2=O + O=c1cc(-c2cccc3c2Sc2ccccc2S3)oc(N2CCOCC2)c1 [KU55933] (first compound 0.002 µM, partner dose 5 µM) | 27 |
| Nc1cccc2c1CN(C1CCC(=O)NC1=O)C2=O (stereo not drawn) [lenalidomide] + O=C(CCCCCCC(=O)Nc1ccccc1)NO [vorinostat] (first compound 5 µM, partner dose 0.4 µM) | 64.9 |
| OCc1c[nH]c2ccccc12 [Indole-3-carbinol] + Cc1cc(N2CCOCC2)cc2[nH]c(-c3c(NC[C@@H](O)c4cccc(Cl)c4)cc[nH]c3=O)nc12 [BMS536924] (first compound 4 µM, partner dose 1 µM) | 84.2 |
| Clc1ccc(Nc2nnc(Cc3ccncc3)c3ccccc23)cc1 [vatalanib] + NC(=O)Nc1cc(-c2cccc(F)c2)sc1C(=O)N[C@H]1CCCNC1 [AZD7762] (first compound 10 µM, partner dose 0.1 µM) | 60.8 |
